Measured values as given in the supplement of paper PMC7826260.
The other results are listed elsewhere or left out. Cleavage of a single-stranded DNA pool by Rep nickase domains was read by sequencing (3 µM enzyme, 1 h, 37 °C); shown is the middle of each 90-letter strand. A value is the log2 ratio of uncut reads to the pool without enzyme; the lower, the more was cut; hits are not called. The scaling is to total reads; values above 0 arise when much of the pool is cut.

Tests used:
Assay in all cases: uncleaved DNA left, log2 of reads against the no-enzyme library (log2 ratio); higher = less cleavage (more negative = more Rep cleavage of the k-mer); sequences stand for … in CTCGTCCG…ACCGGAGA
[1] = system: T1, Rep nickase domain of Muscovy duck circovirus
T1 sequence (residues 1-111, tag not shown): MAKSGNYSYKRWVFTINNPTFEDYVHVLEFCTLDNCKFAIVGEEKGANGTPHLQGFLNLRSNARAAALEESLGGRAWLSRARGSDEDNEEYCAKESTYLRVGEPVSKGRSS
Experimental: (§1)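 A pool of 90-nt single-stranded DNAs with seven random bases just before the constant AC of the nick site (name = the seven bases) was cut by 3 µM recombinant His6-SUMO-tagged Rep nickase domain (300 nM DNA, 50 mM HEPES pH 8.0, 50 mM NaCl, 1 mM MnCl2, 1 h, 37 °C, three replicates). Uncut DNA was amplified and sequenced.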

[2] = system: T2, Rep nickase domain of banana bunchy top virus
T2 sequence (residues 1-94, tag not shown): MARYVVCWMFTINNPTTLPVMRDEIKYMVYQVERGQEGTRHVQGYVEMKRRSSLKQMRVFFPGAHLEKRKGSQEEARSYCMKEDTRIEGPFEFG
Experimental: as §1

[3] = system: T3, Rep nickase domain of cabbage leaf curl virus
T3 sequence (residues 1-116, tag not shown): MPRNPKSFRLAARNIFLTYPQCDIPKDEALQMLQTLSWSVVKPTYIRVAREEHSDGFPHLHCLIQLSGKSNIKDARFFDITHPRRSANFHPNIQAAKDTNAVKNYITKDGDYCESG
Experimental: as §1

[4] = system: T4, Rep nickase domain of chickpea chlorotic dwarf virus
T4 sequence (residues 1-124, tag not shown): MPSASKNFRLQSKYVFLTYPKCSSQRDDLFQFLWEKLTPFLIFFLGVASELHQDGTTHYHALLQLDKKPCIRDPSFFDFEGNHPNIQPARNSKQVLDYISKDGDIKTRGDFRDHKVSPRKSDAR
Experimental: as §1

[5] = system: T5, Rep nickase domain of faba bean necrotic yellows virus
T5 sequence (residues 1-98, tag not shown): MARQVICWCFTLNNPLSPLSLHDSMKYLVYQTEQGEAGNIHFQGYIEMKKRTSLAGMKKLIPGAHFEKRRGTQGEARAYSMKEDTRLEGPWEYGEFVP
Experimental: as §1

[6] = system: T6, Rep nickase domain of maize striate mosaic virus
T6 sequence (residues 1-117, tag not shown): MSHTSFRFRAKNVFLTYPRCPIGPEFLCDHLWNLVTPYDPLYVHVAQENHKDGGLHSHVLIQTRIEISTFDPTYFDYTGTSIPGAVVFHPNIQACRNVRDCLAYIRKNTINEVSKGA
Experimental: as §1

[7] = system: T7, Rep nickase domain of porcine circovirus 2
T7 sequence (residues 2-116, tag not shown): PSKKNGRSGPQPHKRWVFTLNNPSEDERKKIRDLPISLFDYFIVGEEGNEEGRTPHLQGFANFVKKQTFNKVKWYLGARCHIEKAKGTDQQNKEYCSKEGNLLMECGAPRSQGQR
Experimental: as §1

[8] = system: T8, Rep nickase domain of tomato yellow leaf curl virus
T8 sequence (residues 1-136, tag not shown): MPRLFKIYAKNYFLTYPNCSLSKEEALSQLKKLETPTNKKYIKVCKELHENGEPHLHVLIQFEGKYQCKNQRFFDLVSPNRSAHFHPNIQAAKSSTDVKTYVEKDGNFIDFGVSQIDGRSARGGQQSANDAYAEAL
Experimental: as §1

[9] = system: T9, Rep nickase domain of wheat dwarf virus
T9 sequence (residues 1-137, tag not shown): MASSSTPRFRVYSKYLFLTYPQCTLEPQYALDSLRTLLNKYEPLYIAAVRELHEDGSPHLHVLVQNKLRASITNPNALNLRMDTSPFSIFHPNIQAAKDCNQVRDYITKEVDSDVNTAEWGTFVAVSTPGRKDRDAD
Experimental: as §1

Sequence | uncleaved DNA left (log2) [1] | uncleaved DNA left (log2) [2] | uncleaved DNA left (log2) [3] | uncleaved DNA left (log2) [4] | uncleaved DNA left (log2) [5] | uncleaved DNA left (log2) [6] | uncleaved DNA left (log2) [7] | uncleaved DNA left (log2) [8] | uncleaved DNA left (log2) [9]
TTTACTT | -0.094 | -0.0668 | 0.147 | -2.46 | 0.0148 | 0.303 | -0.783 | 0.0741 | 0.000416
CCCCGGA | 0.0634 | -0.0188 | 0.183 | 0.431 | 0.0769 | 0.0695 | 0.149 | -0.116 | -0.109
TTCAGAG | 0.156 | 0.144 | 0.089 | -0.0898 | -0.0419 | -0.494 | 0.173 | 0.00863 | 0.154
AGCGATA | 0.0556 | 0.102 | -0.0663 | 0.556 | 0.0818 | 1.38 | -0.139 | 6.59e-05 | 0.0373
CGTACCC | -0.138 | 0.03 | 0.107 | -0.585 | -0.0691 | -0.0492 | -0.702 | -0.126 | -0.0212
CCGCCAC | -0.0765 | -0.0174 | 0.079 | -0.308 | -0.00375 | -0.55 | -0.0193 | -0.0295 | -0.0169
TTACAGG | -0.00415 | -0.0815 | 0.344 | 0.979 | -0.119 | 1.44 | 0.0235 | -0.0972 | 0.0121
CTACACT | -0.045 | -0.0178 | -1.14 | -2.76 | -0.0211 | -1.05 | -0.405 | -0.179 | -0.537
CCTACAT | -0.0424 | 0.0223 | 0.175 | -1.55 | -0.176 | 0.0781 | -0.0713 | 0.0176 | 0.122
ACTCCAA | 0.122 | 0.0488 | 0.0231 | -0.165 | 0.122 | -0.484 | 0.00534 | -0.0363 | 0.213
GAATTGG | -0.128 | -0.138 | -0.394 | -0.482 | 0.0466 | -0.94 | 0.0651 | 0.036 | -0.0304
GGCCCAG | 0.0787 | 0.176 | 0.467 | 0.946 | -0.0253 | 1.06 | 0.112 | 0.0778 | -0.0142
CTTGGGT | 0.0695 | 0.0303 | -0.117 | 0.264 | -0.00354 | -0.123 | 0.178 | 0.00122 | -0.0237
CATGTGC | -0.0756 | -0.14 | -0.719 | -0.952 | -0.0752 | -1.16 | 0.119 | 0.0427 | -0.131
CCAAGTG | -0.0933 | -0.142 | 0.0182 | 0.661 | -0.126 | 0.509 | 0.0736 | -0.166 | -0.0569
TGACCTA | 0.127 | -0.0654 | 0.16 | 0.165 | 0.0978 | 0.555 | -0.0924 | 0.0562 | 0.129
GACGCTA | -0.119 | -0.0818 | 0.0614 | -0.357 | -0.105 | 0.316 | 0.0411 | -0.0546 | -0.0793
TGGCCTA | -0.0642 | 0.0366 | 0.381 | 0.236 | 0.00726 | 0.549 | -0.0357 | 0.139 | 0.0522
AGTTAAC | 0.0204 | 0.0461 | -0.201 | -1.1 | -0.0442 | -0.35 | -0.0128 | -0.00479 | 0.0105
CAACGAT | 0.015 | -0.028 | -0.187 | -1.39 | -0.00736 | 0.266 | -0.0136 | -0.265 | -0.212
TCTTGGA | 0.0459 | -0.137 | -0.104 | -0.26 | -0.024 | -0.577 | -0.0243 | -0.0544 | -0.192
AGGGAAA | 0.0158 | 0.0973 | 0.446 | 1.53 | 0.182 | 1.4 | 0.0709 | -0.0308 | 0.121
GACTGCA | -0.0519 | -0.0827 | -0.303 | -0.143 | 0.0111 | -0.287 | -1.93 | 0.00101 | -0.00951
CTGGCTT | 0.0533 | -0.197 | -0.239 | -1.3 | -0.0336 | 0.0286 | -0.389 | -0.0469 | -0.185
CAACTCT | -0.0668 | 0.00939 | -1.92 | -2.94 | -0.0284 | -1.13 | -0.458 | -0.158 | -0.654
AGGCGGA | 0.118 | 0.162 | 0.0925 | 0.19 | 0.0845 | -0.204 | 0.146 | 0.0531 | 0.0217
GGGTGGG | 0.0926 | 0.0591 | 0.524 | 1.12 | 0.0619 | 1.19 | 0.276 | -0.00669 | 0.0261
ACCAGCT | -0.122 | -0.063 | -0.482 | -1.08 | 0.0923 | -0.979 | 0.0547 | 0.0225 | -0.0612
TTCTGTT | -3.17 | -0.686 | -2.25 | -2.55 | -0.239 | -0.884 | -3.66 | -0.0273 | -0.636
TGACCAC | 0.154 | 0.0949 | 0.403 | 0.376 | 0.0361 | 0.724 | 0.0236 | 0.0836 | 0.172
